Experimental data taken from the supplement of paper PMC8728848.
The other results are listed elsewhere or left out.

Assays:
Assay in all cases: glycan array binding signal (z-score within array); higher = stronger binding
Conditions in all cases: glycan notation: IUPAC condensed, linker removed
[1] = molecular target: Gal(b1-4)GlcNAc(b1-2)Man(a1-6)[Man(a1-3)]Man(b1-4)GlcNAc(b1-4)GlcNAc
Procedure, shortened: (§1)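 The binding signal is a Z-score computed within each array and averaged over linkers. Arrays of the same protein sequence at different concentrations or buffers were also averaged together. Data originate from 3228 arrays in the Consortium for Functional Glycomics database, kept only where the protein sequence was available.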

[2] = molecular target: Gal(b1-4)GlcNAc(b1-2)[Gal(b1-4)GlcNAc(b1-4)]Man(a1-3)[Gal(b1-4)GlcNAc(b1-2)Man(a1-6)]Man(b1-4)GlcNAc(b1-4)GlcNAc
Procedure, shortened: as §1

[3] = molecular target: Gal(b1-4)GlcNAc(b1-2)[Gal(b1-4)GlcNAc(b1-4)]Man(a1-3)[Gal(b1-4)GlcNAc(b1-2)[Gal(b1-4)GlcNAc(b1-6)]Man(a1-6)]Man(b1-4)GlcNAc(b1-4)GlcNAc
Procedure, shortened: as §1

[4] = molecular target: Gal(b1-4)GlcNAc(b1-2)[Gal(b1-4)GlcNAc(b1-4)]Man(a1-3)[GlcNAc(b1-4)][Gal(b1-4)GlcNAc(b1-2)Man(a1-6)]Man(b1-4)GlcNAc(b1-4)GlcNAc
Procedure, shortened: as §1

[5] = molecular target: Gal(b1-4)GlcNAc(b1-2)[Gal(b1-4)GlcNAc(b1-4)]Man(a1-3)[GlcNAc(b1-4)][Gal(b1-4)GlcNAc(b1-2)[Gal(b1-4)GlcNAc(b1-6)]Man(a1-6)]Man(b1-4)GlcNAc(b1-4)GlcNAc
Procedure, shortened: as §1

[6] = molecular target: Gal(b1-4)GlcNAc(b1-2)[Gal(b1-4)GlcNAc(b1-6)]Man(a1-6)[Gal(b1-4)GlcNAc(b1-2)Man(a1-3)]Man(b1-4)GlcNAc(b1-4)GlcNAc
Procedure, shortened: as §1

[7] = molecular target: Gal(b1-4)GlcNAc(b1-2)[Gal(b1-4)GlcNAc(b1-6)]Man(a1-6)[Gal(b1-4)GlcNAc(b1-2)Man(a1-3)]Man(b1-4)GlcNAc(b1-4)[Fuc(a1-6)]GlcNAc
Procedure, shortened: as §1

[8] = molecular target: Gal(b1-4)GlcNAc(b1-2)[Gal(b1-4)GlcNAc(b1-6)]Man(a1-6)[GlcNAc(b1-4)][Gal(b1-4)GlcNAc(b1-2)Man(a1-3)]Man(b1-4)GlcNAc(b1-4)GlcNAc
Procedure, shortened: as §1

[9] = molecular target: Gal(b1-4)GlcNAc(b1-2)[Gal(b1-4)GlcNAc(b1-6)]Man(a1-6)[GlcNAc(b1-4)][Gal(b1-4)GlcNAc(b1-2)[Gal(b1-4)GlcNAc(b1-4)]Man(a1-3)]Man(b1-4)GlcNAc(b1-4)[Fuc(a1-6)]GlcNAc
Procedure, shortened: as §1

[10] = molecular target: Gal(b1-4)GlcNAc(b1-3)Gal(b1-3)GalNAc
Procedure, shortened: as §1

[11] = molecular target: Gal(b1-4)GlcNAc(b1-3)Gal(b1-3)GlcNAc
Procedure, shortened: as §1

[12] = molecular target: Gal(b1-4)GlcNAc(b1-3)Gal(b1-4)Glc
Procedure, shortened: as §1

[13] = molecular target: Gal(b1-4)GlcNAc(b1-3)Gal(b1-4)GlcNAc
Procedure, shortened: as §1

[14] = molecular target: Gal(b1-4)GlcNAc(b1-3)Gal(b1-4)GlcNAc(b1-2)Man(a1-3)[Gal(b1-4)GlcNAc(b1-3)Gal(b1-4)GlcNAc(b1-2)Man(a1-6)]Man(b1-4)GlcNAc(b1-4)GlcNAc
Procedure, shortened: as §1

[15] = molecular target: Gal(b1-4)GlcNAc(b1-3)Gal(b1-4)GlcNAc(b1-2)Man(a1-3)[Gal(b1-4)GlcNAc(b1-3)Gal(b1-4)GlcNAc(b1-2)Man(a1-6)]Man(b1-4)GlcNAc(b1-4)[Fuc(a1-6)]GlcNAc
Procedure, shortened: as §1

[16] = molecular target: Gal(b1-4)GlcNAc(b1-3)Gal(b1-4)GlcNAc(b1-2)[Gal(b1-4)GlcNAc(b1-3)Gal(b1-4)GlcNAc(b1-6)]Man(a1-6)[Gal(b1-4)GlcNAc(b1-3)Gal(b1-4)GlcNAc(b1-2)Man(a1-3)]Man(b1-4)GlcNAc(b1-4)GlcNAc
Procedure, shortened: as §1

[17] = molecular target: Gal(b1-4)GlcNAc(b1-3)Gal(b1-4)GlcNAc(b1-2)[Gal(b1-4)GlcNAc(b1-3)Gal(b1-4)GlcNAc(b1-6)]Man(a1-6)[Gal(b1-4)GlcNAc(b1-3)Gal(b1-4)GlcNAc(b1-2)Man(a1-3)]Man(b1-4)GlcNAc(b1-4)[Fuc(a1-6)]GlcNAc
Procedure, shortened: as §1

[18] = molecular target: Gal(b1-4)GlcNAc(b1-3)Gal(b1-4)GlcNAc(b1-3)Gal(b1-4)GlcNAc
Procedure, shortened: as §1

B1: OGAN (protein)
chain: MVQKESQATLEERESELSSNPAASAGASLEPPAAPAPGEDNPAGAGGAAVAGAAGGARRFLCGVVEGFYGRPWVMEQRKELFRRLQKWELNTYLYAPKDDYKHRMFWREMYSVEEAEQLMTLISAAREYEIEFIYAISPGLDITFSNPKEVSTLKRKLDQVSQFGCRSFALLFNDIDHNMCAADKEVFSSFAHAQVSITNEIYQYLGEPETFLFCPTEYCGTFCYPNVSQSPYLRTVGEKLLPGIEVLWTGPKVVSKEIPVESIEEVSKIIKRAPVIWDNIHANDYDQKRLFLGPYKGRSTELIPRLKGVLTNPNCEFEANYVAIHTLATWYKSNMNGVRKDVVMTDSEDSTVSIQIKLENEGSDEDIETDVLYSPQMALKLALTEWLQEFGVPHQY
Q: Which “glycan array binding signal (z-score)” value [1] does the source give for B1 here?
A: -0.063

Q: And the “glycan array binding signal (z-score)” value [2]?
A: -0.076

Q: What about the “glycan array binding signal (z-score)” value [3] of the same binder?
A: -0.061

Q: And the “glycan array binding signal (z-score)” value [4]?
A: -0.065

Q: What about the “glycan array binding signal (z-score)” value [5] of the same binder?
A: -0.042

Q: And the “glycan array binding signal (z-score)” value [6]?
A: -0.064

Q: And the “glycan array binding signal (z-score)” value [7]?
A: 0.012

Q: And the “glycan array binding signal (z-score)” value [8]?
A: -0.045

Q: And the “glycan array binding signal (z-score)” value [9]?
A: -0.042

Q: And the “glycan array binding signal (z-score)” value [10]?
A: -0.072

Q: And the “glycan array binding signal (z-score)” value [11]?
A: -0.072

Q: And the “glycan array binding signal (z-score)” value [12]?
A: -0.07

Q: And the “glycan array binding signal (z-score)” value [13]?
A: -0.047

Q: What about the “glycan array binding signal (z-score)” value [14] of the same binder?
A: -0.028

Q: And the “glycan array binding signal (z-score)” value [15]?
A: -0.037

Q: What about the “glycan array binding signal (z-score)” value [16] of the same binder?
A: -0.025

Q: What about the “glycan array binding signal (z-score)” value [17] of the same binder?
A: -0.01

Q: And the “glycan array binding signal (z-score)” value [18]?
A: -0.079
